{
  "source": "PubChem BioAssay AID463173",
  "about": "(ICCB-Longwood Screening Facility, Harvard Medical School, 2010)",
  "note": "In all, about 52,000 compounds went through this assay and about 1,700 (3.3%) were called active. Rule as the data show it: active = survival mostly below about 52% (no sharp cut-off); inactive = mostly above about 56%. Some of the results follow.",
  "data": [
    {"test_system": "Wild type", "assay": "S. aureus survival, RN4220 and DeltatarO strains – OD600, teichoic acid synthesis inhibitors, primary screen (AID 463173)", "conditions": "S. aureus RN4220 wild type/DeltatarO growth, OD600, 18 h, active compounds read low, screened at 18.75 µg/mL (by protocol)", "values": [
      {"compound": "CC1CCc2onc(C(=O)N3CCN(c4cccc(Cl)c4)CC3)c2C1", "note": "(stereo unspecified)", "survival": "inactive: 88%"},
      {"compound": "C=CCNC(=O)Cc1c(O)c2ccccc2[nH]c1=O", "survival": "inactive: 123%"},
      {"compound": "CCc1nn2c(=O)c(S(=O)(=O)Nc3ccc(C)c(C)c3)c(C)nc2s1", "survival": "inactive: 70%"},
      {"compound": "CCOC(=O)CNC(=O)c1cc2c(=O)n3cccc(C)c3nc2n1C", "survival": "inactive: 105%"},
      {"compound": "O=C1OC2(CCCC2)OC(=O)C1=Cc1ccc(N2CCOCC2)o1", "survival": "inactive: 106%"},
      {"compound": "CCc1cccc(C)c1NC(=O)c1cnn(-c2ccc(OC)cc2)c1C1CCN(C(=O)OC(C)(C)C)CC1", "survival": "inactive: 87%"},
      {"compound": "COc1ccc(NC(=O)c2nc(-c3ccc(C)cc3)n3c2CCCCC3)c(OC)c1", "survival": "inactive: 85%"},
      {"compound": "CCOCCc1nn2c(=O)cc(COC(=O)c3ccc(NC(=O)C(C)(C)C)cc3)nc2s1", "survival": "inactive: 77%"},
      {"compound": "O=C1OCC2=C1C(c1ccc(F)cc1)Sc1ccccc1N2", "note": "(stereo unspecified)", "survival": "inactive: 120%"},
      {"compound": "OCCc1c[nH]c2ccc(OCc3ccccc3)cc12", "survival": "inactive: 110%"},
      {"compound": "Cc1cc2oc(C(=O)N(Cc3ccco3)Cc3ccccc3Cl)c(C)c2cc1C", "survival": "inactive: 85%"},
      {"compound": "CCCCOc1ccc(CSCCN=C(N)N)cc1", "survival": "inactive: 54%"},
      {"compound": "Cc1ccc(SCC(=O)Nc2ccc3oc(-c4ccccc4F)nc3c2)cc1", "survival": "inactive: 74%"},
      {"compound": "CCOC(=O)c1ccccc1NC(=O)c1cnc(N2CCOCC2)c2ccccc12", "survival": "inactive: 73%"},
      {"compound": "COc1ccc(CNC(=O)Cn2c(-c3ccccc3)cc(C(C)=O)c2C)cc1OC", "survival": "inactive: 81%"},
      {"compound": "CCN(CC)c1nn2c(=O)c(C(=O)NCc3ccc(N(C)C)cc3)cnc2s1", "survival": "inactive: 105%"},
      {"compound": "Cc1nn(C)c(C)c1CCNC(=O)Nc1ccccc1C(F)(F)F", "survival": "active: 1%"},
      {"compound": "COc1ccc(N2CC(NC(=O)/C=C\\c3ccccc3)CC2=O)cc1OC", "note": "(stereo unspecified)", "survival": "inactive: 74%"},
      {"compound": "O=C(NCc1cccs1)c1ccc(CSc2nc3ccncc3n2Cc2ccccc2F)cc1", "survival": "inactive: 135%"},
      {"compound": "CCC(=O)N1CCc2cc(S(=O)(=O)NC(C(=O)NCCc3cccc(C)c3)C(C)C)ccc21", "note": "(stereo unspecified)", "survival": "inactive: 84%"},
      {"compound": "CN(Cc1ccco1)S(=O)(=O)c1nnc(NC(=O)c2ccccc2Cl)s1", "survival": "inactive: 84%"},
      {"compound": "CC(=O)Nc1cccc(NC(=O)CCn2cnc3cc(C)c(C)cc32)c1", "survival": "inactive: 103%"},
      {"compound": "COc1cc(Cl)c(C)cc1Nc1nc2ccccc2n2cnnc12", "survival": "inactive: 127%"},
      {"compound": "CC1CCCN(CCCNC(=O)c2cc3c(Cl)nc4ccccc4c3s2)C1", "note": "(stereo unspecified)", "survival": "inactive: 82%"},
      {"compound": "COc1ccc(C(=O)CCC(=O)Nc2ccc(C)c(Cl)c2)cc1", "survival": "inactive: 72%"},
      {"compound": "CCc1ccccc1N(C)C(=O)c1sc2nc3n(c(=O)c2c1C)CCCCC3", "survival": "inactive: 67%"},
      {"compound": "Cc1ccc(C2c3[nH]c4ccccc4c3CCN2C(=O)CSCc2ccc(F)cc2)cc1", "note": "(stereo unspecified)", "survival": "inactive: 92%"},
      {"compound": "O=C(NCCc1csc(-c2ccc(F)cc2)n1)c1cccc(F)c1", "survival": "inactive: 90%"},
      {"compound": "COc1ccccc1CNC(=O)C1CCN(S(=O)(=O)c2cn(C)cn2)CC1", "survival": "active: -3%"},
      {"compound": "COC(=O)C1(c2ccccc2)NC(c2ccc(O)cc2)C2C(=O)N(c3ccc4c(c3)OCCO4)C(=O)C21", "note": "(stereo unspecified)", "survival": "inactive: 106%"},
      {"compound": "Cc1ccc(CN2CCCn3nc(C(=O)NCc4ccc(N(C)C)cc4)cc3C2=O)cc1", "survival": "inactive: 73%"},
      {"compound": "COc1ccc(CCNc2nc3c(-c4cccc(C(F)(F)F)c4)nnn3c3ccccc23)cc1OC", "survival": "inactive: 83%"},
      {"compound": "Clc1ccc(-c2cc3ncc4c(n3n2)-c2ccccc2OC4)cc1", "survival": "inactive: 78%"},
      {"compound": "O=C(Nc1ccccc1-c1nc2ccccc2s1)c1ccc(F)cc1", "survival": "inactive: 64%"},
      {"compound": "CCN1C(=O)C(C(=O)NC(C)c2ccccc2)C2CC1(C)Oc1ccccc12", "note": "(stereo unspecified)", "survival": "inactive: 103%"},
      {"compound": "O=C(CSc1nc2ccsc2c(=O)n1-c1ccc(Cl)cc1)NCc1ccc(Cl)cc1", "survival": "inactive: 77%"},
      {"compound": "CC1CCN(c2nc(-c3ccc(C(C)(C)C)cc3)nc3ccccc23)CC1", "survival": "active: 3%"},
      {"compound": "CCC(=O)N1CCc2cc(S(=O)(=O)NCCC(=O)Nc3ccc(CC)cc3)ccc21", "survival": "inactive: 73%"},
      {"compound": "CCOc1ccc(NC(=O)c2cc3cc(C)ccc3n2C)cc1", "survival": "inactive: 81%"},
      {"compound": "CC(C)CNC(=O)Nc1cc(C(=O)NCc2ccc(C(C)C)cc2)ccc1N1CCCC1", "survival": "inactive: 75%"},
      {"compound": "CCOc1ccc(NC(=O)c2oc3ccccc3c2NC(=O)C(C)(C)C)cc1", "survival": "inactive: 33%"},
      {"compound": "COc1ccccc1NC(=O)CSc1oc(-c2ccco2)nc1S(=O)(=O)c1ccc(C)cc1", "survival": "inactive: 75%"},
      {"compound": "COc1ccc(CCNC(=O)c2c(O)nc3ccccn3c2=O)cc1OC", "survival": "inactive: 68%"},
      {"compound": "O=C(CC1N=C2c3ccccc3N=C(SCC(=O)Nc3ccc(F)cc3)N2C1=O)NCc1ccco1", "note": "(stereo unspecified)", "survival": "inactive: 83%"},
      {"compound": "CCOc1ccc2nc(N3CCCC(C(=O)Nc4ccc(OC)cc4)C3)sc2c1", "note": "(stereo unspecified)", "survival": "inactive: 70%"},
      {"compound": "Cc1ccc(C(=O)Nc2nnc(S(=O)(=O)N(C)Cc3ccc(Cl)cc3)s2)cc1", "survival": "inactive: 124%"},
      {"compound": "COc1cc(Nc2ncc3c(n2)CCN(Cc2ccc(OC(C)C)c(OC)c2)C3)cc(OC)c1", "survival": "inactive: 127%"},
      {"compound": "COc1ccc(NC(=O)c2csnn2)cc1Cl", "survival": "inactive: 85%"},
      {"compound": "CCc1nn2c(=O)cc(COC(=O)c3ccc(NC(=O)COc4ccccc4C)cc3)nc2s1", "survival": "inactive: 85%"},
      {"compound": "Cc1ccc(NC(=O)N2CC3CCCN3c3ccccc32)cc1Cl", "note": "(stereo unspecified)", "survival": "inactive: 83%"},
      {"compound": "O=C(Cn1ncc2c3ccccc3n(Cc3ccccc3F)c2c1=O)N1CCCCCC1", "survival": "inactive: 77%"},
      {"compound": "CCN1CCN(c2nnc(-n3cccc3C(=O)NCc3ccccc3OC)s2)CC1", "survival": "inactive: 64%"},
      {"compound": "O=C(c1noc2c1CCCCC2)N1CCN(c2cccc(Cl)c2)CC1", "survival": "inactive: 73%"},
      {"compound": "Cc1ccccc1OC(=O)c1cc(-c2ccc3c(c2)OCCO3)on1", "survival": "active: -6%"},
      {"compound": "Cc1ccc(C(C(=O)NCc2ccccc2)N(C(=O)c2snc(C(N)=O)c2N)c2ccc3c(c2)OCCO3)o1", "note": "(stereo unspecified)", "survival": "inactive: 94%"},
      {"compound": "COc1ccc(NC(=O)C2CCN(C3=NS(=O)(=O)C(c4ccc(C)c(C)c4)=C3C)CC2)c(OC)c1", "survival": "inactive: 119%"},
      {"compound": "Cc1ccc(C)c(NC(=O)Cc2coc3cc(C)cc(C)c23)c1", "survival": "inactive: 98%"},
      {"compound": "O=C(NCCc1csc(-c2cccc(F)c2)n1)C(=O)Nc1cc(F)ccc1F", "survival": "inactive: 82%"},
      {"compound": "COc1cccc(CNC(=O)C2CCN(S(=O)(=O)c3c(C)noc3/C=C/c3cccs3)CC2)c1", "survival": "inactive: 94%"},
      {"compound": "COc1ccc(C)cc1NS(=O)(=O)c1cnc(N)nc1", "survival": "inactive: 60%"},
      {"compound": "O=C(c1cc2ccc3cccnc3c2[nH]1)N1CCCCC1", "survival": "inactive: 69%"},
      {"compound": "CCc1ccccc1NC(=O)Cn1nnc2sc3c(c2c1=O)CCC(C(C)(C)C)C3", "note": "(stereo unspecified)", "survival": "inactive: 93%"},
      {"compound": "CCOC(=O)c1cc2c(=O)n3ccccc3nc2n(CC2CCCO2)c1=NC(=O)c1ccccc1Br", "note": "(stereo unspecified)", "survival": "inactive: 65%"},
      {"compound": "CCOC(=O)Nc1ccc2c(c1)N(C(=O)CN1CCOCC1)c1ccccc1CC2", "survival": "inactive: 103%"},
      {"compound": "CCOC(=O)c1sc2ncn(CC(=O)Nc3cc(Cl)ccc3C)c(=O)c2c1C", "survival": "inactive: 69%"},
      {"compound": "CC(=O)c1ccc(N2CCN(C(=O)c3cc(S(=O)(=O)N4CCCCCC4)cn3C)CC2)cc1", "survival": "inactive: 75%"},
      {"compound": "Cc1cccc(NC(=O)CSc2ccc(-c3sc(-c4ccccc4)nc3C)nn2)c1C", "survival": "inactive: 62%"},
      {"compound": "CC(=O)Nc1cccc(NC(=O)CSc2nccn2Cc2ccc3c(c2)OCO3)c1", "survival": "inactive: 82%"},
      {"compound": "COC(=O)C1=NNC2C(=O)N(c3ccccc3C(F)(F)F)C(=O)C12", "note": "(stereo unspecified)", "survival": "inactive: 101%"},
      {"compound": "Cc1cc(C(=O)Nc2c(C)cccc2C)n(-c2ccccc2)n1", "survival": "inactive: 86%"},
      {"compound": "Cc1nn(Cc2ccccc2)c(C)c1CC(=O)O", "survival": "inactive: 109%"},
      {"compound": "COCCCNC(=O)c1ccc(Cn2c(SCc3ccc(F)cc3)nc3cccnc32)cc1", "survival": "inactive: 22%"},
      {"compound": "O=C(OCc1cc(=O)n2nc(-c3cccs3)sc2n1)c1cccc(F)c1", "survival": "inactive: 98%"},
      {"compound": "CC(C)CCN(C(=O)Nc1ccc(Cl)c(Cl)c1)C1CCN(C(C)C)CC1", "survival": "inactive: 59%"},
      {"compound": "CC(C)c1nn2c(=O)cc(COC(=O)C3CCCCC3)nc2s1", "survival": "inactive: 70%"},
      {"compound": "Cc1ccc(S(=O)(=O)c2nnn3c2nc(NC2CCCCCC2)c2sccc23)cc1C", "survival": "inactive: 48%"},
      {"compound": "CCCOc1cccc(C2c3c(oc4ccc(F)cc4c3=O)C(=O)N2CCCN2CCOCC2)c1", "note": "(stereo unspecified)", "survival": "inactive: 88%"},
      {"compound": "Cc1ccc(CN(Cc2ccco2)C(=O)c2ccccc2Br)o1", "survival": "inactive: 84%"},
      {"compound": "CCOc1cc(/C=C2\\SC(=NC)N(C)C2=O)c(Br)cc1OC(C)=O", "survival": "inactive: 84%"},
      {"compound": "CCCOc1ccc(-c2nonc2NC(=O)c2ccco2)cc1OCCC", "survival": "inactive: 117%"},
      {"compound": "CC1CCN(C(=O)c2cc3c(=O)n(C)c4cc(Cl)ccc4c3s2)CC1", "survival": "inactive: 129%"},
      {"compound": "Cc1nc(-c2ccc(S(=O)(=O)N3CCN(c4cccc(C(F)(F)F)c4)CC3)cc2)co1", "survival": "inactive: 73%"},
      {"compound": "Nc1cc(N)nc(SCC(=O)N2CCc3ccccc32)n1", "survival": "inactive: 109%"},
      {"compound": "Cc1cc(Br)cc(C)c1NC(=O)c1sc2ncn(Cc3cccc(F)c3)c(=O)c2c1C", "survival": "inactive: 90%"},
      {"compound": "CCNC(=O)c1ccc(C)c(-n2c(C)nc3cccnc32)c1", "survival": "inactive: 72%"},
      {"compound": "Cc1ccc(NC(=O)Cn2c(=O)c3ccc(Cl)cc3n3nncc23)cc1", "survival": "inactive: 62%"},
      {"compound": "CCOc1ccc(-c2nnn(CCC#N)n2)cc1OC", "survival": "inactive: 99%"},
      {"compound": "CCCNC(=O)c1ccc(N2C(=O)c3ccccc3C2=O)cc1", "survival": "inactive: 99%"},
      {"compound": "O=C(Cn1c(-c2cccs2)cc2ccccc21)N1CCN(c2ccc(Cl)cc2)CC1", "survival": "inactive: 74%"},
      {"compound": "COc1cccc(-c2csc(-c3c(N)c(C(=O)c4ccc5c(c4)OCO5)n4ccccc34)n2)c1", "survival": "inactive: 95%"},
      {"compound": "CCOc1ccc(C2C(C(=O)Nc3ccccc3)=C(C)Nc3nc(-c4ccccc4)nn32)cc1OC", "note": "(stereo unspecified)", "survival": "inactive: 111%"}
    ]}
  ]
}
